These results are taken from the RNAGym collection of RNA variant scans (doi:10.1073/pnas.2313332121).

Variants at the background level are over-represented here.

First the molecules themselves.
B1: TPR 5TU (parent)
chain: GGAUCUUCUCGAUCUAACAAAAAAGACAAAUCUGCCACAAAGCUUGAGAGCAUCUUCGGAUGCAGAGGCGGCAGCCUUCGGUGGCGCGAUAGCGCCAACGUUCUCAACUAUGACACGCAAAACGCGUGCUCCGUUGAAUGGAGUUUAUCAUG

The data set covers variants of B1. The data set is described as follows: polymerase ribozyme fitness, log enrichment relative to wild type (log ratio); higher = more active; in vitro selection for triplet polymerase activity. Put shortly: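 Fitness measures genotype enrichment against wild-type enrichment on a logarithmic scale, with inverse-variance-weighted averaging of replicates. The logarithm is base 2, and genotypes were kept only with ≥10 input reads and ≥1 read per output in Illumina sequencing. The sequenced libraries came from one triplicate in vitro selection round, including frozen incubation at −7 °C, of PCR-built, transcribed mutant libraries of each subunit of a heterodimeric triplet polymerase ribozyme.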
As for C27U U44A G46A U56G G84U A106U, the “polymerase ribozyme fitness (log ratio)” value was at most -4.2.
The figure for A28G A29G C75G C87U U111G is at most -4.2; for C27U G48C C85U A97G G140C A142C it is at most -4.2; for A26U A49C G68A C129A it is at most -4.2.
The figure for A26U A49U C87A U134G is at most -4.2.
As to A26U G34U C75G G94A, the “polymerase ribozyme fitness (log ratio)” value is at most -4.2.
For the variant A28U A39G C54A U77G C87A G94A A97G A150G, the “polymerase ribozyme fitness (log ratio)” value was at most -4.2.
With C27A G92A C103G the figure was at most -4.2.
The figure for C27G A30C A66G G84U G133U is at most -4.2.
The figure for C27U G50C U53A G92C U104G is at most -4.2; for C27G C87G G88A U148C C149A it is at most -4.2.
Consider A28G G80A G141A, for which the “polymerase ribozyme fitness (log ratio)” value was at most -4.2.
On to A28U A41C C96U G136U U144A, for which the “polymerase ribozyme fitness (log ratio)” value is at most -4.2.
With A26U C69G A142U the figure was -2.62; with A26U A29U C57U G94C G117A, at most -4.2.
For the variant C27U A91G A147C G152U, the “polymerase ribozyme fitness (log ratio)” value is at most -4.2.
With A28C U31G A41U G65A C85G G88U C96U C103U U135G the figure was at most -4.2.
The figure for A26U A47G G65A C69A U82A G88C U127A is at most -4.2; for C27G U77A A91U C116A U130A G133U it is at most -4.2.
As to C27U G58A G70A C76A C93U, the “polymerase ribozyme fitness (log ratio)” value was at most -4.2.
With A26G G59A A60G U61A G80U G81A C93U C118G the figure was at most -4.2; with C27U C43A C75U C125G, at most -4.2.
With C27G U61A C79G C87G the figure was at most -4.2; with C27A C85A A120U G141C, at most -4.2; with A28C C43U U56A A107C, at most -4.2.
The figure for C27A U55G G58C G83U G84C A115U is at most -4.2; for A26U A39U G58A A66C C93U C149G it is at most -4.2.
Regarding A26U A28U G92A C96U C116U, the “polymerase ribozyme fitness (log ratio)” value was at most -4.2.
With A28G G42U the figure was at most -4.2; with C27G A52U G68A A89U G94C A110U, at most -4.2; with A28G U53A C116U C118A, at most -4.2.
As to A28G U44G A91U C99U, the “polymerase ribozyme fitness (log ratio)” value is at most -4.2.
Regarding A28G G58U, the “polymerase ribozyme fitness (log ratio)” value was at most -4.2.
For the variant A28C G71U G74U U78A C99A, the “polymerase ribozyme fitness (log ratio)” value was at most -4.2.
With A28G A30U U45A C54U C76G C96A the figure was at most -4.2; with C27G G65A, at most -4.2; with C27U G48U G67A G94A, at most -4.2.
Regarding A26U C36U G46C A49C C69U A91C G94U G136C, the “polymerase ribozyme fitness (log ratio)” value was at most -4.2.
With A26U G50A A64G U101G G141A the figure was at most -4.2; with A28U A40C C54G U78G A89U G141U, at most -4.2.
The figure for C27U G58C U139C is at most -4.2; for C27A C79A G84A G86U it is at most -4.2; for C27U A138G it is -3.72.
With A28C C93U the figure was -4.16; with C27G C69U G94C C123U, at most -4.2.
On to C27U A39U A52G C57G G58C A64C C72A C103G, for which the “polymerase ribozyme fitness (log ratio)” value was at most -4.2.
The figure for A28G U55G G58C G88C G140U is at most -4.2; for A26U C57A G59A U77A G92A it is at most -4.2.
The figure for A28G A37C A64U U77G C85G G133A is at most -4.2; for A28C U31C U77A C93U A98G G117A it is at most -4.2; for A28G C32U G86C A115G U144G it is at most -4.2.
The figure for A26U G50A A60G G68U U134C is at most -4.2; for A28G G48A G88U it is at most -4.2; for C27U C32U U78G U145G it is at most -4.2.
C27U U45A G48C G50A C63U G92C: the “polymerase ribozyme fitness (log ratio)” value was at most -4.2.
The figure for A26U C96U C108G U127A is at most -4.2; for A26U G92C it is -3.52; for A28C U61G G67A C69A C93G A113U G124U it is at most -4.2.
Regarding A26U G48U G81C A106U U134C U135G, the “polymerase ribozyme fitness (log ratio)” value is at most -4.2.
The figure for A26U G48A is -3.27.
As to A28G C63U G83A G92U G94A A142C, the “polymerase ribozyme fitness (log ratio)” value was at most -4.2.
The figure for A26U G50U C54U C79G C87G C149A is at most -4.2; for A26G U55A it is -2.03.
A28G C35A U45A G86U U101G C125G G126A: the “polymerase ribozyme fitness (log ratio)” value is at most -4.2.
For the variant A28C U31G C125G, the “polymerase ribozyme fitness (log ratio)” value was at most -4.2.
The figure for A28C C32A C35A U55A G84U U104G G143A U148A is at most -4.2; for C27A G92A A120G A121C A137G A142U it is at most -4.2.
The figure for A28U A39U C85U G133C A150U is at most -4.2; for A26U U77G it is at most -4.2.
With C27G A28U the figure was at most -4.2; with C27U A52C C85U G86C C87A G92C C93U G126A C149A, at most -4.2; with C27U C95U U102A, -2.66.
Take A26G G81A C95U: the “polymerase ribozyme fitness (log ratio)” value was at most -4.2.
As for A26G C75G C93A C125U, the “polymerase ribozyme fitness (log ratio)” value was at most -4.2.
With A26U U33G C51G G68A C69A A115G the figure was at most -4.2.
The figure for C27G A37C C93A A115G is at most -4.2; for A28G A47U A60G it is at most -4.2.
The figure for C27U U31A A52C C54U C93G is at most -4.2.
A26U A41G G62U: the “polymerase ribozyme fitness (log ratio)” value is -1.6.
As for A26U A40C G68C G71U U82A A119C C125A A150C, the “polymerase ribozyme fitness (log ratio)” value is at most -4.2.
With A26U C35U G42C C108A A115C G133U U135A A142G U146C A147G, the “polymerase ribozyme fitness (log ratio)” value was at most -4.2.
Take A28C C43U A52C C54A C123U: the “polymerase ribozyme fitness (log ratio)” value was at most -4.2.
In the case of C27G C85U C95U G141A, the “polymerase ribozyme fitness (log ratio)” value was at most -4.2.
The figure for A26U A29C U101G G133U C149A is at most -4.2.
